The record followed here is PubChem BioAssay AID488969 (Vanderbilt High Throughput Screening Facility, 2010).

SMILES strings stand for the structures. Over roughly 110,000 compounds, “z-score” has its median near -0.1; the highest 2% begin near 2. The list shows a part of the results.

The target in this experiment is Metabotropic glutamate receptor 8 (Rattus norvegicus) (UniProt P70579). In words: rat mGluR8 modulators via GIRK flux, primary screen, cell-based, thallium flux, HTS (AID 488969). The following applies: HEK293 rat mGluR8, GIRK (G protein-gated inwardly rectifying potassium channel) thallium flux, FluoZin2; at 10 µM; stronger effect = higher value; submaximal glutamate (EC20) added with thallium.
UniProt P70579, sequence (P70579 whole entry, looked up): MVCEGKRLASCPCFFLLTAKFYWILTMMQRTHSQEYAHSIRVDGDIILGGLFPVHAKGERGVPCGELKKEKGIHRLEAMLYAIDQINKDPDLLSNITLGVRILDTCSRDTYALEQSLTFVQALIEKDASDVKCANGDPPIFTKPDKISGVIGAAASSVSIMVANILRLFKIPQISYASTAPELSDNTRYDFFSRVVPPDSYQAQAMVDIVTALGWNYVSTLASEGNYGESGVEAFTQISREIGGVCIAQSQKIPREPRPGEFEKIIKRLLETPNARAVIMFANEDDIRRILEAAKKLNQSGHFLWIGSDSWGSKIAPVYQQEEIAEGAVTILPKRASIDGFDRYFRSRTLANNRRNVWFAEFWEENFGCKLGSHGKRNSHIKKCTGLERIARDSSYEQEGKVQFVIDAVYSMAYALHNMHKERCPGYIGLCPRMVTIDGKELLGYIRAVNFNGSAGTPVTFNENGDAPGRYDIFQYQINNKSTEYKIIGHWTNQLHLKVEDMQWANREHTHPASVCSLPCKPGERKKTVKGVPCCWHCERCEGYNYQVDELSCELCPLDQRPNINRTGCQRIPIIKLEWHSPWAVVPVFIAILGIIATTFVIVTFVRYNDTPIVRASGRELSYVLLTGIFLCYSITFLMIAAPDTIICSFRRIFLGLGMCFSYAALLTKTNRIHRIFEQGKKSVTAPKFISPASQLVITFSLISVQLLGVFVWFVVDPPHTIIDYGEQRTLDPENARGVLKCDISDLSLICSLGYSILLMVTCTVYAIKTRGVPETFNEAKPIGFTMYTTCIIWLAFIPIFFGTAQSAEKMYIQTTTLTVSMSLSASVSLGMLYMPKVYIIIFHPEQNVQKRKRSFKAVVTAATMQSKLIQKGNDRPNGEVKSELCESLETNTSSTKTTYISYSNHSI
In the case of `Cc1ccc(NC(=O)CCC(=O)OCc2ccc(Br)cc2)cc1`, the z-score is -0.235.

`O=C(N/C(=C/c1cccnc1)C(=O)N1CCOCC1)c1ccco1` registered a z-score of 0.0222.

`O=C(CCSc1ccccc1)NCCSCc1ccccc1` came in with a z-score of -0.108. To `CCOC(=O)c1cc(NC(=O)c2ccc(Cl)cc2)c(=O)n2c1oc1ccc(Cl)cc12` belongs -1.56; to `COC(=O)c1cc(Br)ccc1NC(=O)Nc1ccccc1`, -0.137; to `Cc1cccnc1NC(=O)Nc1cccc2ccccc12`, -0.148. In turn, `CC1(C)Oc2ccc(NC(=O)c3ccco3)cc2O1` returned a z-score of 0.0161. To `CN(C)C=Nc1ncc2c3ccccc3n(CCN(C)C)c2c1C#N` belongs -0.357; to `COc1ccccc1CC(=O)Nc1ccc(-c2noc(COc3ccc(Br)cc3)n2)cc1`, 0.394.

The compound `Cc1ccc(/C=C/c2nc3ccccc3s2)s1` had a z-score of 0.108. Compound `Cc1ccc2nc(Cl)c(/C=N/Nc3nc(C)cc(C)n3)c(=O)n2c1` showed a z-score of -0.589. Compound `O=C(CSc1nnc(SCc2cccc3ccccc23)s1)N=Nc1c(O)[nH]c2ccccc12` had a z-score of -0.196. As to `O=C(C1CC1)N(CCN(Cc1ccccc1)C(=O)C1CC1)Cc1ccccc1`, the z-score was -0.357.

As for `FC(F)(F)c1nnc2sc(-c3cccs3)nn12`, the z-score was -0.116. To `CC(=O)Nc1ccc(OCC(O)Cn2c3ccccc3c3ccccc32)c(C)c1` (stereo not given) belongs -0.121; to `COc1cccc(C(=O)Nc2nc3c(s2)CN(C)CC3)c1`, -0.0134. To `CSc1nc2c(cc1C#N)CCCCC2` belongs -0.138. Regarding `CCN(CC)S(=O)(=O)c1ccc(S(=O)(=O)N(Cc2ccccn2)Cc2ccco2)cc1`, the z-score is -0.932. To `O=S(=O)(c1ccc(F)cc1)n1ccc(-c2cccc(OCc3ccc(Cl)cc3Cl)c2)n1` belongs -0.222.

For `CSc1nncc(-c2ccc(F)c(F)c2)n1`, the z-score was -0.588.

Turning to `COc1cc(OC)c(-n2cc(-c3ccc(Cl)cc3)[nH]c2=O)cc1Cl`, the z-score was -0.109. To `COC(=O)c1ccc(CSc2ncnc3c2nnn3-c2ccc(F)cc2)o1` belongs -0.0233; to `CCN(c1ccccc1)S(=O)(=O)c1ccc(Cl)c(NC(=O)CSc2nncs2)c1`, -0.244.

Turning to `O=C(On1c(-c2ccccc2)nc2ccccc2c1=O)c1ccco1`, the z-score was -2.42. Then `CCN(CC(=O)NC1CCS(=O)(=O)C1)S(=O)(=O)c1ccccc1` (stereo not given), with -0.3; and `Cc1ccc(Cl)cc1NC1=C/C(=N\S(=O)(=O)c2cccs2)c2ccccc2C1=O`, with -0.209; and `CNC(=S)N1CCN(c2ccc([N+](=O)[O-])cc2)CC1`, with -0.188. Then `Cc1ccc(N2C(=O)CC(Nc3ccccc3)C2=O)cc1` (stereo not given), with 0.323; and `O=c1[nH]c2cc3c(cc2cc1C(c1nnnn1Cc1ccccc1)N1CCCc2ccccc21)OCO3` (stereo not given), with -0.346; and `CCOC(=O)C1=C(CP(=O)(c2ccccc2)c2ccccc2)NC(=O)NC1c1ccc(Cl)cc1` (stereo not given), with -0.311. As to `CCN(CC)C(=O)C1=C(C)NC(=O)NC1c1c(F)cccc1Cl` (stereo not given), the z-score is -0.438. To `Cc1cc(C(=O)NCCCN2CCOCC2)n(-c2ccccc2)n1` belongs 0.0519; to `COC(=O)c1ccc(COn2c(=O)c(C)[n+]([O-])c3ccccc32)cc1`, -0.22.

In turn, `O=C(CNc1cccc2ccccc12)N/N=C/c1ccc(C(=O)O)cc1` registered a z-score of 0.00827.

As for `Cn1c(SCc2nc3ccccc3[nH]2)nnc1-c1cccs1`, the z-score was -0.22.

Compound `Cc1nnc(SCC(=O)NCc2ccco2)[nH]c1=O` displayed a z-score of 0.822. Turning to `COc1ccc(Cl)cc1S(=O)(=O)N1CCN(C(=O)COc2ccccc2)CC1`, the z-score was -0.595. As for `COc1ccc(/C=N/OCC(=O)N(Cc2ccccc2)c2ccccc2C(=O)O)cc1`, the z-score is -0.0974. Then `CN1C(=C2C(=O)OC(C)(C)OC2=O)Sc2ccccc21`, with -0.239; and `Cc1ccc(NC(=O)CN2c3cccc4cccc(c34)S2(=O)=O)cc1S(=O)(=O)N1CCOCC1`, with 1.9. Then `COc1ccccc1-c1cc(C(=O)Nc2cc(C)n(Cc3ccc(Cl)cc3)n2)no1`, with 1.42; and `CCc1ccccc1N(CC(=O)Nc1cccc(N(C)S(C)(=O)=O)c1)S(C)(=O)=O`, with -0.767; and `Clc1ccc(C2=CSC3=Nc4cccc5cccc(c45)N23)cc1`, with 0.287. The compound `Clc1ccc(-c2nnc(COc3ncnc4sccc34)o2)cc1` returned a z-score of -0.17. To `O=C(c1cccc(F)c1)N1CCN(Cc2ccco2)CC1` belongs 1.75; to `COCc1cc(C)nc(NCCO)c1C#N`, -0.354; to `CCCSCCCNC(=O)Cn1cc2c(n1)CCC(C)C2` (stereo not given), 0.0614. Regarding `O=C(Nc1nc(-c2ccccn2)cs1)C1CC1`, the z-score amounted to 0.0299. To `O=C(C1CCCN(Cc2ccccc2Br)C1)N1CCCCC1` (stereo not given) belongs 0.643; to `Cc1cccc(C(=O)OCc2cnc(Cl)s2)c1`, -0.141; to `O=C(CCn1c(=O)c2sccc2n(CC(=O)OCc2ccccc2)c1=O)NCc1ccco1`, -0.601. To `O=C(CN(C1CCCCC1)S(=O)(=O)c1ccc(Cl)cc1)NCc1cccnc1` belongs -0.67; to `CCc1cccc(CC)c1N(COC)C(=O)Cn1c(CO)nc2ccccc21`, 0.35; to `Cc1c(Cl)cccc1NC(=O)CSc1nnc(CCNC(=O)OC(C)(C)C)o1`, 0.264. To `CC(C)=CC[N+]1(C)CCCCC1` belongs 1.14; to `Cc1ccc(NS(=O)(=O)c2cc(C(=O)NCCSC3CCCCC3)ccc2C)cc1`, 0.0246. `COc1ccc(Oc2nc3c(c(=O)n(C)c(=O)n3C)n2Cc2ccccc2)cc1` yielded a z-score of -1. Then `COc1ccc(-c2cc(C(F)F)n3ncc(C(=O)NCC4CCCO4)c3n2)cc1` (stereo not given), with 0.609. To `c1ccc(-c2cn3nc(-c4ccccc4)cnc3n2)cc1` belongs 0.0427; to `Cc1ccc(Oc2nc(C(F)(F)F)nc3ccccc23)cc1`, -0.0484; to `CCOC(=O)C1(C)C=C(Nc2ccc(OCC)cc2)C(=O)N1c1ccccc1` (stereo not given), -0.0669. On to `Cc1n[nH]c(C)c1C(=O)CC1(O)C(=O)N(CCc2ccccc2)c2ccc(Br)cc21` (stereo not given), for which the z-score is -0.295. To `O=C(Nc1ccc(N2C(=O)c3cccc4cccc(c34)C2=O)cc1)c1ccc(N2CCCCC2)c([N+](=O)[O-])c1` belongs -0.0599; to `Cc1cc(O)cc(=O)n1Cc1ccco1`, -0.277; to `O=C(CCCCCn1c(=O)[nH]c2ccccc2c1=O)NCCc1c[nH]c2ccccc12`, -0.126. `Cc1ccc(C)c(S(=O)(=O)NCC(=O)Nc2sc3c(c2C(N)=O)CCC(C)C3)c1` (stereo not given) gave a z-score of -0.403. In turn, `CCc1c(C)nc2c(Br)cccc2c1SCCC#N` registered a z-score of -0.993. `CC(=O)Nc1ccc(NC(=O)CC2Nc3cccc4cccc(c34)NC2=O)cc1` (stereo not given): the z-score is 0.459. In turn, `CN(C)CCCNC(=O)CC(c1ccccc1)c1ccccc1O` (stereo not given) gave a z-score of 0.34. Then `O=[N+]([O-])/C=C/c1cn(Cc2ccccc2)c2ccccc12`, with 0.0881.
